The values that follow come from PubChem BioAssay (NCI).

In the assay the test system is NCI-H322M lung. The assay can be described thus: NCI anticancer screen, dose series, 48 h.

Where “and” joins values, the source holds several entries; their conditions need not be identical. Equal values may be shown once.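 Five compound concentrations were applied to cells in 96-well plates for 48 hours; endpoints were derived by simple linear interpolation of the resulting dose-response curve. GI50 marks 50% less growth. TGI denotes the concentration required for complete inhibition of growth.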 Bounds are passed on as bounds.

Compound `CC(C)(O)CCC(O)C(C)(O)C1CCC2(O)C3=CC(=O)C4(O)CC(O)C(O)CC4(C)C3CCC12C` (configuration not stated) (tested in a mixture with another compound) displayed a TGI greater than 100 µM.

`COc1cccc(C2CC(=O)c3cccn32)c1` (configuration not stated) yielded a TGI greater than 100 µM. Still for that read-out and setting: the value for `COC(=O)C1=C(C)NC2(C)OC(C)(O)C(C(C)=O)C12C(C)=O` (configuration not stated) was greater than 100 µM; that for `CCOC(=O)C1=C(C)N(c2ccc(C)cc2)C2(O)C=CC(=O)C3=C(O)c4ccccc4C(=O)C312` (configuration not stated) was greater than 100 µM. As for `C/C=C/C(=O)[O-].N.N.N.N.N.[Co+3].[O-][Cl+3]([O-])([O-])[O-]`, the GI50 was greater than 100 µM and the TGI is greater than 100 µM.

In turn, `CN(CCN(C)C(=O)CCn1ccc(=O)[nH]c1=O)C(=O)CCn1ccc(=O)[nH]c1=O` returned a TGI greater than 100 µM. Consider `COc1ccc(N2C(=O)/C(=C/c3ccc(N(CCC#N)CCC#N)cc3)N=C2c2ccccc2)c(OC)c1`, for which the TGI was greater than 100 µM. Still for that read-out and setting: the value for `S=c1[nH]nc(SCc2ccccc2Cl)c2[nH]cnc12` was greater than 100 µM; that for `C=C1C(=O)O[C@H]2C/C(C=O)=C\[C@H]3O[C@H]3/C(COC(=O)C(C)C)=C/CC12` (some centres not stated) was 25.8 µM. Turning to `O=C(Nc1cccc([N+](=O)[O-])c1)c1cc2ccccc2cc1O`, the GI50 was 2.48 µM and the TGI is 9.36 µM. `Cc1nnc(CC#N)n1NC(=O)CC#N`: the TGI was greater than 100 µM. Still for that read-out and setting: the value for `CN/N=C(\C(=O)Nc1ccc([N+](=O)[O-])cc1[N+](=O)[O-])C1NC(=O)NC1=O` (configuration not stated) was greater than 100 µM.

As for `CCC1OC(/C(C)=C/C(C)/C=C/C2C(C)C2/C=C/C2OC(CC(=O)O)CC(O)C2O)CC=C1C` (configuration not stated), the GI50 was 40 µM and the TGI was greater than 50 µM. The compound `O=C(/C=C/c1ccccc1)CCc1c(O)c2ccccc2oc1=O` returned a TGI greater than 100 µM.

As to `CN(C)c1ccc(N=C(C#N)c2nc(N)nc(N3CCN(c4ccccc4)CC3)n2)cc1`, the GI50 was 23.7 µM and the TGI was greater than 50 µM. `CC1=NN(C(=O)c2cc(Cl)cc([N+](=O)[O-])c2)C(=O)C1N=Nc1ccccc1C(=O)O` (configuration not stated) returned a TGI greater than 100 µM.

For the compound `CC(=O)NS(=O)(=O)c1ccc(-n2nc(-c3ccccc3)cc2C2=CC(=O)C=CC2=O)cc1`, the GI50 was greater than 100 µM and the TGI is greater than 100 µM. As to `C#CCOc1cccc(Nc2ncc3ncn(C4CCN(C(=O)CCl)C4)c3n2)c1` (configuration not stated), the GI50 is greater than 62.5 µM and the TGI was greater than 62.5 µM. As for `CC1(C)O[C@@H](CP(c2cccc3ccccc23)c2cccc3ccccc23)[C@H](CP(c2cccc3ccccc23)c2cccc3ccccc23)O1`, the TGI is greater than 100 µM. `CCCCN(CCCC)C(=O)C(=O)CC(=O)/C=C/c1ccccc1` gave a TGI greater than 100 µM. Same read-out and setting: the value for `COc1cc(C(=O)C/C(CCC(=O)Nc2ccc(Cl)cc2Cl)=N/Nc2nnc(C)n2N)ccc1O` was greater than 100 µM; that for `COc1ccc(NC(=S)NNC(=O)c2cc(-c3ccccc3)nc3ccccc23)cc1` was 62.1 µM; that for `COC(=O)c1c(C#C[Si](C)(C)C)c(C#C[Si](C)(C)C)c(C#C[Si](C)(C)C)c(C#C[Si](C)(C)C)c1C(=O)OC` was greater than 100 µM. Same read-out and setting: the value for `C/C(=C\CNc1nc(Cl)nc2nc[nH]c12)CO` was greater than 100 µM. For the compound `COc1ccc(S(=O)(=O)n2c3ccccc3n3ncc(-c4nnc(C)o4)c23)cc1`, the GI50 was 0.664 µM and the TGI is greater than 100 µM. Take `S=C(Nc1ccccc1)N1CCn2c1nsc2=Nc1ccccc1`: the GI50 was greater than 100 µM and the TGI is greater than 100 µM. In the case of `COC(=O)[C@@H]1O[C@]12[C@@H](CO[Si](C)(C)C(C)(C)C)O[C@@H](n1cc(C)c(=O)[nH]c1=O)[C@@H]2O[Si](C)(C)C(C)(C)C`, the TGI stood at 44.3 µM. Consider `CC(=O)Nc1cc2cc(NS(=O)(=O)c3cc(C(F)(F)F)cc(C(F)(F)F)c3)ccc2oc1=O`, for which the TGI is greater than 100 µM. On the same count and under the same terms, the value for `Nc1ccc(-c2nc3ccccc3s2)cc1` was greater than 80.9 µM.

As to `N#C/C(=C\c1cccnc1)c1nc2ccccc2o1`, the GI50 was greater than 100 µM and the TGI was greater than 100 µM. In turn, `CC1(C)CC2(C)OC(=N)C1(C#N)C2(C#N)C#N` (configuration not stated) returned a TGI of 27.3 µM. The same measure, in the same setting: the value for `S=C(Nc1ccc2c(c1)Cc1ccccc1-2)Nc1ccc2c(c1)Cc1ccccc1-2` was greater than 100 µM. Consider `O[C@H](CN1CC1)[C@@H](O)CN1CC1`, for which the GI50 was 13.3 µM and the TGI was determined as 49.9 µM. On to `C=C(C)[C@@H]1CC[C@]2(C)[C@H](CC=C3[C@@H]4[C@H](C)[C@@H](C)CC[C@]4(CO)CC[C@]32C)[C@@]1(C)CCCN`, for which the GI50 is 1.74 µM and the TGI came out at 6.38 µM. For `COc1ccccc1N1C(=O)/C(=C\c2cccc(Oc3ccccc3)c2)S(=O)(=O)C1c1ccccc1` (configuration not stated), the TGI is greater than 100 µM.

Turning to `C(#Cc1ccccc1C#Cc1ccccn1)c1ccccn1`, the GI50 is 13.6 µM and the TGI turned out to be 31.7 µM. `O=C1OC2C=CC1C1(CCOC1=O)C2` (configuration not stated) came in with a TGI greater than 100 µM. On the same count and under the same terms, the value for `CC(=O)O[C@H]1C(=O)[C@@]2(C)C(C(OC(=O)c3ccccc3)[C@]3(O)CC(OC(=O)C(O)C(NC(=O)c4ccccc4)c4ccc(C)cc4)C(C)=C1C3(C)C)[C@]1(OC(C)=O)CO[C@@H]1C[C@@H]2O` (some centres not stated) was 4.85 µM.

For `O=C(O)c1ccc2cccnc2c1O`, the GI50 is 2.91 µM and the TGI was greater than 79.1 µM.

As for `Cc1cc(Cl)ccc1NC(=O)NC(C)(C)COC(=O)Nc1cccc(Cl)c1`, the GI50 was 10.7 µM and the TGI was greater than 100 µM.

The compound `O=C1C(=Cc2ccccc2[N+](=O)[O-])N=C(c2ccccc2)N1n1c(-c2ccccc2)nc2ccccc2c1=O` showed a TGI greater than 100 µM. Regarding `Cc1cc(O)c2c(c1)C(=O)C(c1c(C)cc3c(c1O)C(=O)C1OC1C3=O)=CC2=O` (configuration not stated), the TGI was determined as 28.4 µM. In turn, `COC(=O)C1=C(c2cc(OC)c(OC)c(OC)c2)O[C@H](c2ccc3c(c2)OCO3)[C@H]1COC(C)=O` gave a TGI greater than 100 µM. In turn, `CCOC(=O)N1C(=S)C(C(=O)OC)(C(=O)OC)N=C1C` registered a TGI greater than 100 µM.

In turn, `C=C(C(=O)OC)[C@H]1CC/C(C)=C/CC/C(C)=C/CC[C@@]2(C)O[C@@H]2C1` showed a TGI greater than 100 µM. In turn, `COc1cc(S(=O)(=O)N/N=C/c2cc(Br)c(O)c(OC)c2)c(OC)cc1NC(C)=O` displayed a TGI greater than 100 µM.

As to `C=C1C[C@@H]2[C@H](CC[C@]3(C)C(=O)CC[C@@H]23)[C@@]2(C)C=CC(=O)C=C12`, the GI50 was 64 µM and the TGI was greater than 100 µM. Turning to `Cn1c(=O)c2[nH]c(CCC(=O)O)nc2n(C)c1=O`, the TGI was greater than 100 µM. `CC(C)(F)C[C@H](N[C@@H](c1ccc(-c2ccc(S(C)(=O)=O)cc2)cc1)C(F)(F)F)C(=O)NC1(C#N)CC1`: the GI50 was > 55 µM and 42.6 µM; the TGI was greater than 100 µM.

As for `c1cc2ccc1CNCCN1CCNCc3ccc(cc3)Oc3ccc(cc3)CNCCN(CCNCc3ccc(cc3)O2)CCNCc2ccc(cc2)Oc2ccc(cc2)CNCC1`, the GI50 was 0.94 µM and the TGI was found to be 2.16 µM. In turn, `O=C(Nc1nc(C23CC4CC(CC(C4)C2)C3)cs1)c1cc2cc([N+](=O)[O-])ccc2oc1=O` registered a TGI greater than 100 µM. As for `Cc1ccc(S(=O)(=O)c2ccsc2N)cc1`, the GI50 is greater than 100 µM and the TGI was greater than 100 µM. Compound `CC(=O)[C@H]1CCC2[C@@H]3CC=C4C(O)C(OS(=O)(=O)O)CC[C@]4(C)C3CC[C@@]21C` (some centres not stated) gave a TGI greater than 100 µM.

`Cc1nn(-c2ccccn2)c2c1C(SC#N)=C(C=O)CC2` gave a TGI of 28.2 µM.
